Measured values from PMC4336329 (PLoS ONE, 2015).
Screen size: about 310,000 compounds; about 2,200 (0.71%) showed an effect of 50% or more. Effects have a minus sign here. The list shows a part of the results.

Biological target: human ether-à-go-go-related gene (hERG) potassium channel (human, UniProt Q12809)
Assay: primary screen, population patch clamp on CHO cells stably expressing hERG

Sequence of human ether-à-go-go-related gene (hERG) potassium channel (Q12809 whole entry, looked up): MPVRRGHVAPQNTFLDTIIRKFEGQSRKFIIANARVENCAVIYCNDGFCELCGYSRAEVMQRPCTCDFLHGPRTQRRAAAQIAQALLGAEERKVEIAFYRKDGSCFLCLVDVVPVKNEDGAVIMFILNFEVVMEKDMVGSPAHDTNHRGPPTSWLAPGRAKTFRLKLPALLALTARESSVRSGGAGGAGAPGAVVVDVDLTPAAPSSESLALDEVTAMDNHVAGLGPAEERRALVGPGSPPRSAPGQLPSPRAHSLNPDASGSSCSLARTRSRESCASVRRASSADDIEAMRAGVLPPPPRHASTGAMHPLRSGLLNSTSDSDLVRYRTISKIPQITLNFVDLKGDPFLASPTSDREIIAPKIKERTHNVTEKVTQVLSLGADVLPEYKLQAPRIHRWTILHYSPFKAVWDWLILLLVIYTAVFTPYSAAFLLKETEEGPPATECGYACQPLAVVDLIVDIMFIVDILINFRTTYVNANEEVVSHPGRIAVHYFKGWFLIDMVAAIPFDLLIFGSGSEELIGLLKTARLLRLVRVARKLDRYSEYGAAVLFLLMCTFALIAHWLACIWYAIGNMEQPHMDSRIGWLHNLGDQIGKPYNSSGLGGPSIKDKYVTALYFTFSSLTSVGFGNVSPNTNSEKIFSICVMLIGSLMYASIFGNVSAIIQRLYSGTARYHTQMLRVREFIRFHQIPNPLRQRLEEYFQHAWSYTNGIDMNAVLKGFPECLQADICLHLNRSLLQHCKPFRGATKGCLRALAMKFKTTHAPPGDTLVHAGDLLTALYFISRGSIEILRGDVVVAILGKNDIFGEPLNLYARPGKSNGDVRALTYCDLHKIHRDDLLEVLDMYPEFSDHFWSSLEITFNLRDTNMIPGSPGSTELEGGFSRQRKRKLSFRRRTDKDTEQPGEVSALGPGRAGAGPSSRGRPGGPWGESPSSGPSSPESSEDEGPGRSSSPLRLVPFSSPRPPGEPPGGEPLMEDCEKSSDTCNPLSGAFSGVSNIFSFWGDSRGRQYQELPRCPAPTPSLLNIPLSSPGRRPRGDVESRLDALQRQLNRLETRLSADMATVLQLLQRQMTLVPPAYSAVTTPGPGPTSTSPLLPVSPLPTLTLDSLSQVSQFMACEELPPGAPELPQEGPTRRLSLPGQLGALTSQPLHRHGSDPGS

SMILES	hERG current change (%, negative = inhibition) at 1uM [%]
COc1ccc(CCNC(=O)c2ccc(N(C)S(=O)(=O)c3ccc(C)cc3)cc2)cc1	0.332
Cc1ccc(CNC(=O)C2CCCN(S(=O)(=O)c3ccc(F)cc3)C2)cc1 (stereo not drawn)	-8.97
Cc1ncc([N+](=O)[O-])n1Cc1ccccc1F	12
O=C(Nc1nccs1)c1ccc2ccccc2c1	21.5
CN1CCN(S(=O)(=O)c2ccc(NC(=O)c3ccc(Br)o3)cc2)CC1	-4.72
O=C1C=C(c2ccc(F)c(Cl)c2)C[C@@H](c2ccc(F)cc2)C1	1.79
COc1ccc2c(c1)c(CC(=O)Nc1ccc(C(C)=O)cc1)c(C)n2C(=O)c1ccc(Cl)cc1	3.95
Cc1cc(OCC(=O)Nc2ccc3oc(-c4ccncc4)nc3c2)ccc1Cl	9.6
CCOc1ccc(-c2ccc(SC)nn2)cc1	12.8
COc1ccc(/C=C(\NC(=O)c2cccs2)C(=O)Nc2ccc(C)cc2)cc1OC	5.9
Cc1c(Cl)cccc1NC(=O)COC(=O)c1c2c(nc3ccccc13)CCN(Cc1ccccc1)C2	9.3
Cc1cccc(NC(=S)NC2CCN(Cc3ccccc3)CC2)c1C	14.4
CCn1c(=N)n(CC(O)c2cccs2)c2ccccc21.Cl (stereo not drawn)	-7.18
Cc1nn(Cc2ccc(Cl)cc2)c(C)c1NC(=O)c1c(-c2ccccc2)noc1C	-15.7
CCCCOc1ccc(C(=O)Nc2ccncc2)cc1	21.2
CCOC(=O)C[C@H]1c2ccccc2S(=O)(=O)N1Cc1cc(OC)c(OC)c(OC)c1	10.8
Cn1c(=O)oc2cc(S(=O)(=O)Nc3ccc(Cl)cc3F)ccc21	1.45
CC(C)(C)c1cc(CP(=O)(c2ccccc2)c2ccccc2)cc(C(C)(C)C)c1O	18.7
Cc1c(Nc2cc(N3CCCC(C)C3)c3nonc3c2[N+](=O)[O-])c(=O)n(-c2ccccc2)n1C (stereo not drawn)	-4.1
CCN(c1cccc(C)c1)S(=O)(=O)c1cnc[nH]1	8.01
O=C(COc1ncnc2ccccc12)N1CCN(S(=O)(=O)c2ccc(Cl)cc2)CC1	0.332
O=C(CNC(=O)c1ccc(Cl)cc1Cl)NCCCn1ccnc1	12.5

SMILES	hERG current change (%, negative = inhibition) at 1uM [%]
COc1cccc(-c2nc(CS(=O)CC(=O)NC3CCCCC3)c(C)o2)c1 (stereo not drawn)	0.932
O=C1N=c2ccccc2=C1c1sc(=S)n(-c2ccc(O)cc2)c1O	18.5
CCS(=O)(=O)NCCCCc1ccccc1	-1.33
COc1ccccc1CN1CC(C(=O)NCCc2cn[nH]c2)CCC1=O (stereo not drawn)	12.6
CC(C)Cn1cc(C(=O)NCCCOC(C)C)c2c3ccccc3n(C)c2c1=O	9.78
O=C(N/N=C/c1c(O)n(CCc2ccc(F)cc2)c(=O)[nH]c1=O)c1ccccc1	9.78
CC(C)[C@@H]1CC[C@@H](C)c2c(-c3ccccc3)n[nH]c21	22.6
COc1cc(/C=C2\C(=N)N3N=C(S(C)(=O)=O)SC3=NC2=O)cc(OC)c1OCCOc1ccc(C)cc1	11.2
CC(C)[C@H](NC(=O)C1CCN(S(=O)(=O)c2ccccc2)CC1)C(=O)NCc1ccccn1	16.4
CCCCCCn1c(CN2CCCCC2CC)nc2c1c(=O)n(C)c(=O)n2C (stereo not drawn)	-19.9
Cc1cc(=O)n2c(c1C#N)SC1CCCCC12O (stereo not drawn)	10.4
Cc1noc(NS(=O)(=O)c2ccc(NC(=O)CSc3nc4ccccc4[nH]3)cc2)c1C	-2.29
Cc1onc(-c2ccccc2)c1-c1nc2ccccc2c(=O)o1	19.4
O=C(NC(=S)NCC1CCCO1)c1ccco1 (stereo not drawn)	10.7
COC(=O)C1=C(c2ccc(F)cc2OCc2ccccc2)C[C@@H]2CC[C@H]1N2C(=O)NCc1cccc(OC)c1	15.8
CC(OC(=O)c1cc2sccc2n1C)C(=O)NCc1ccc(F)cc1 (stereo not drawn)	3.5
Cc1ccccc1-n1ncc2c1CC(C)(C)CC2NC(=O)CCC1=NNC(=O)CC1 (stereo not drawn)	-15.2
CC1CCCCN1CC(=O)Nc1ccccc1Sc1ccccc1 (stereo not drawn)	13.2
CN1CCN(C(=O)CC2(CC(=O)O)CCCC2)CC1.Cl	9.63
COc1cccc(-n2nnc3c(=O)n(Cc4c(F)cccc4Cl)cnc32)c1	3.26
CCSc1nnc(NC(=O)CC(C)C)s1	10.6
Cl.Nc1ccc2nc(C3CCCCC3)[nH]c2c1	11.5

SMILES	hERG current change (%, negative = inhibition) at 1uM [%]
CC1(C)Cc2c(c(N3CCOCC3)nc3sc(C#N)c(N)c23)CS1	7.2
C=CCNC(=O)CN1CCC(n2c(C)nc3cc(C(F)(F)F)ccc32)CC1	-31.9
COc1ccc(OC)c(NC(=S)N(CCc2c(C)[nH]c3ccc(C)cc23)Cc2cccs2)c1	7.13
O=C1CCc2cc(S(=O)(=O)NCCCC(=O)N3CCN(Cc4ccc5c(c4)OCO5)CC3)ccc2N1	4.53
COc1cc(C)nc(NS(=O)(=O)c2ccc(C)cc2)n1	10.4
CC(=O)C1=C(C)OC(N)=C(C#N)C1c1cc2cccc(C)c2nc1Cl (stereo not drawn)	10.7
Cc1cc(N2C(=O)C(O)=C(C(=O)c3ccco3)C2c2ccc(Cl)cc2)no1 (stereo not drawn)	-1.94
O=C(O)Cn1nnnc1SCC(=O)Nc1ccccc1F	11.2
COc1cccc(CNC(=O)CCn2c(=O)c3cccn3c3cccnc32)c1	11.9
CCOc1ccc(Cn2c(SCCCCC#N)nc3c2c(=O)n(C)c(=O)n3C)cc1OCC	-7
COc1ccc(NC(=O)CSc2nc3c(c(=O)[nH]2)CCC3)cc1OC	6.14
O=C(N/C=N/OCc1cccc(C(F)(F)F)c1)N1OC[C@@H]2COc3ccc4ccccc4c3[C@@H]21	18
C/C(=N\NC(=O)c1ccc(-c2ccccc2)cc1)C1C(=O)c2ccccc2C1=O	18
O=C(O)COc1ccc(/C=C2\SC(=Nc3ccccc3)N(c3ccccc3)C2=O)cc1	12.9
CCOc1ccc(-c2nc(C)sc2CC(=O)O)cc1	14.1
Cc1ccc(NC(=S)N/N=C/c2c(C)[nH]c3ccccc23)cc1	14.9
CC1CN(C(=S)Nc2ccc(Br)cc2)CC(C)O1 (stereo not drawn)	19.9
Cc1cc(NC(=O)CSc2nc(-c3ccc(Cl)cc3)cs2)no1	-6.66
CNC(=O)CCc1nc(-c2ccc(C(C)(C)C)cc2)no1	9.01
COc1cc(C2N(c3ccc(Cl)cc3)C(=O)C3CCCN32)cc(OC)c1OC (stereo not drawn)	4.22
CC1CC(=O)N(C)c2ccc([N+](=O)[O-])cc2N1 (stereo not drawn)	0.469
N#CC(c1cccc(C(F)(F)F)c1)(c1ncc(C(F)(F)F)cc1Cl)N1CCOCC1 (stereo not drawn)	9.05

SMILES	hERG current change (%, negative = inhibition) at 1uM [%]
Cc1ccc(NCc2ccccc2F)cc1	-0.66
COc1ccc(-c2cc(C(=O)N/N=C/c3ccc4c(c3)OCO4)c3ccccc3n2)c(OC)c1	9.83
CCSc1nc2c(c(=O)n1Cc1ccccc1)SC(C)C2 (stereo not drawn)	5.63
Cc1cccc2[nH]c(SCC(=O)N3CCOCC3)nc12	0.0741
O=C(Cn1ncc2c1-c1ccccc1OC2)N1CCN(Cc2ccccc2)CC1	-58
O=C1Nc2cc(C(=O)N3CCc4ccccc4C3)ccc2S/C1=C\c1ccccc1	-2.47
O=C(NCc1csc(-c2ccccc2)n1)c1ccco1	-10.7
COc1ccccc1N1C(=O)c2ccc(C(=O)Nc3ccc(C(=O)O)cc3)cc2C1=O	15
CCN(CC(=O)Nc1ccc(Br)cc1F)CC(=O)NC1CCS(=O)(=O)C1 (stereo not drawn)	14.2
C=CCNC(=S)NNC(=O)c1ccc2c(c1)OCO2	0.265
CC(=O)c1cccc(NC(=O)CCOc2ccccc2)c1	8.13
COc1ccc(/C=N/Nc2nc(N3CCCC3)nc(N3CCCC3)n2)c(OC)c1OC	4.64
COc1cc(/C=N/Nc2nn3cnnc3c3ccccc23)ccc1O	20.3
Cc1cc(C)n(-c2nc(N(c3ccccc3)c3ccccc3)nc(-n3nc(C)cc3C)n2)n1	11.6
CN(CC(=O)Nc1sccc1C#N)Cc1ccccc1	4.37
COc1cccc(NC(=O)CNC(=O)c2ccccc2)c1	5.93
Cn1nc(-c2ccccc2)c(N2CCCCC2)cc1=O	11.7
CC1CC1C(=O)OCC(=O)Nc1cccc(S(=O)(=O)NC2=NCCCCC2)c1 (stereo not drawn)	-3.21
CCOC(=O)C(CCCCOc1cccc(CC)c1)C(=O)OCC	10.2
COc1ccc(C(CNC(=O)c2cccc(N(C)C)c2)N2CCCC2)cc1 (stereo not drawn)	-10.2
O=C(CSCc1ccccc1)N1CCN(Cc2ccc3c(c2)OCO3)CC1	4.72
